The results in this text go back to PMC10897488.

Amino acid sequences for entries named in this document (tags omitted). A change or cut given only in a name is not applied to a line headed by its entry. Chains listed by the source or under a name are the forms on record and can include a tag or linker. Residues count along the entry.
UniProt O43791: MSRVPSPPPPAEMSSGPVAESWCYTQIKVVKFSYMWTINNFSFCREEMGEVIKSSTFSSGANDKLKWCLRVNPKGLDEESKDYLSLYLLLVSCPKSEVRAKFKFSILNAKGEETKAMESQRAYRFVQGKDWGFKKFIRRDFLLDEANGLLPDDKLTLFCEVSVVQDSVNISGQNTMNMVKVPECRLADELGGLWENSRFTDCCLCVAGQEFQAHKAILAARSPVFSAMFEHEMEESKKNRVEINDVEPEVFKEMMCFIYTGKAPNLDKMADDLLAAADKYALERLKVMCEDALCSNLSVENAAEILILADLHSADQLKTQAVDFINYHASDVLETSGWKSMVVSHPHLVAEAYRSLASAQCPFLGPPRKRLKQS
Fg-SPOP-MATH (human (cDNA of HCC cells)): residues 31-161 of O43791
UniProt Q7Z5L9: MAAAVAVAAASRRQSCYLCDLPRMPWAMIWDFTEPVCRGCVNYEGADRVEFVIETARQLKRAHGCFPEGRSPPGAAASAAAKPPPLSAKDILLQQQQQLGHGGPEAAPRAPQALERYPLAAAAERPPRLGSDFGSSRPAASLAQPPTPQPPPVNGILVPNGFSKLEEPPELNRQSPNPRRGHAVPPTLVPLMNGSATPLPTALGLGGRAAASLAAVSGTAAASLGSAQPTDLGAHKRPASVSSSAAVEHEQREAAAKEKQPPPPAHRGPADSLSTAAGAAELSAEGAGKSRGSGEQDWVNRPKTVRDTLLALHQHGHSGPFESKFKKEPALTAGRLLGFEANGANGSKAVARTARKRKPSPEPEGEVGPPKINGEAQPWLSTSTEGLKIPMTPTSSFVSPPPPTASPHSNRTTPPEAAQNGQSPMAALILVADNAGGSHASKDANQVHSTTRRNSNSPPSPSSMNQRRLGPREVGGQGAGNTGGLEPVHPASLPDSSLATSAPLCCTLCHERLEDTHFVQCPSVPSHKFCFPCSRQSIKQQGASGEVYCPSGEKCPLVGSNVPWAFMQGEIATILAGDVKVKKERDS
Myc-IRF2BP2-Mu (Q7Z5L9, form named): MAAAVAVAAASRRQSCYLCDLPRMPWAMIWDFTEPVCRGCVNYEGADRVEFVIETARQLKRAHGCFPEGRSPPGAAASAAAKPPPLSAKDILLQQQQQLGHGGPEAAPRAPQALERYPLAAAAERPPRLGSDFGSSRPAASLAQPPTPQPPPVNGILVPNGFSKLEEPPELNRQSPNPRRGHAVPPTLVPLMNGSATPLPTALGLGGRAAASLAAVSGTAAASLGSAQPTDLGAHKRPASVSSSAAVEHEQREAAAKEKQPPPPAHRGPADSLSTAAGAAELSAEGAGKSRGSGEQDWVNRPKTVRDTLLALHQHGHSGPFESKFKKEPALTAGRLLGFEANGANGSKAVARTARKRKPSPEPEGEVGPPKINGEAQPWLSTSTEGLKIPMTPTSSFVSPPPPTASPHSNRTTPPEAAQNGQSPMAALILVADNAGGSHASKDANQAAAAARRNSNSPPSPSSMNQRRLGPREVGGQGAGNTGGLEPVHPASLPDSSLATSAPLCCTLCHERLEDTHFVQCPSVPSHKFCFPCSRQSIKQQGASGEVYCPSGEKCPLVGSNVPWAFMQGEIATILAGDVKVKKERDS
UniProt P10070: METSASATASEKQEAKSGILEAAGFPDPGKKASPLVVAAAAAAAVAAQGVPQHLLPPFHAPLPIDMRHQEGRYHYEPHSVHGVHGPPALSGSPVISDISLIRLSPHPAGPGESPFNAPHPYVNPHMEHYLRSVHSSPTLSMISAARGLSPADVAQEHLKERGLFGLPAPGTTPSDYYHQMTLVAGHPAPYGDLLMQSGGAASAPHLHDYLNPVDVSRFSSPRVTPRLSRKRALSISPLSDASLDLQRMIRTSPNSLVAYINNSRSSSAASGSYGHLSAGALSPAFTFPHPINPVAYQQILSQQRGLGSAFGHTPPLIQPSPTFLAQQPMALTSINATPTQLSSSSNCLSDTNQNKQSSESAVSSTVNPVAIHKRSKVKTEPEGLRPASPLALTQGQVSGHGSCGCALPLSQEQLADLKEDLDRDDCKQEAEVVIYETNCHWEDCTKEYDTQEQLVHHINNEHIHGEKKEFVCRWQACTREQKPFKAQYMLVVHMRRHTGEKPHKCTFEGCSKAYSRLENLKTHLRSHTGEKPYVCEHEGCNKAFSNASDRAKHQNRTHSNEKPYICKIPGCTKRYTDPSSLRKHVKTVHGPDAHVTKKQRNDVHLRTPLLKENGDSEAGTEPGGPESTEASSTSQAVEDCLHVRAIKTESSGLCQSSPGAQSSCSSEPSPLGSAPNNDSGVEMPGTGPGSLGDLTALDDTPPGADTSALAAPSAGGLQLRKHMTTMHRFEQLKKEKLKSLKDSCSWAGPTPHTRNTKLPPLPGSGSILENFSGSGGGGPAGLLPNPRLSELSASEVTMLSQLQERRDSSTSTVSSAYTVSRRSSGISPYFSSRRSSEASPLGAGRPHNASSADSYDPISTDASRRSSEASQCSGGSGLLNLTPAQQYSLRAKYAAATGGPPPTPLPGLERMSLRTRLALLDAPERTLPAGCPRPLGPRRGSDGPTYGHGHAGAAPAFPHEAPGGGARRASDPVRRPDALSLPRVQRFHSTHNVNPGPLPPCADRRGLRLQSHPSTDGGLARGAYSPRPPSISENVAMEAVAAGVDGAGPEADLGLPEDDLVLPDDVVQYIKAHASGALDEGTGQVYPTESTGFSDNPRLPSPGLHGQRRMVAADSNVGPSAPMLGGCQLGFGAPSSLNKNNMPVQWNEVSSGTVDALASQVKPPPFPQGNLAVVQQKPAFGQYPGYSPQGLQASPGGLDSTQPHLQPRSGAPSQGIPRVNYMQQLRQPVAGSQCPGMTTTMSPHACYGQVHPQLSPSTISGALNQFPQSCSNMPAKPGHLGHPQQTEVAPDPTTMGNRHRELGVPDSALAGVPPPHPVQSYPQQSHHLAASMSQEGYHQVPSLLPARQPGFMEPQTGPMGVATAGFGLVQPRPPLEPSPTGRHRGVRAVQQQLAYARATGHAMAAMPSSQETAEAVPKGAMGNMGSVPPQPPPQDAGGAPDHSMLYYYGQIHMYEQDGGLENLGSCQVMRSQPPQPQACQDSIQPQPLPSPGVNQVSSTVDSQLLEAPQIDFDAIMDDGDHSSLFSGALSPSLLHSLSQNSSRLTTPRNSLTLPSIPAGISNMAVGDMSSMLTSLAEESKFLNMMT
UniProt P01106: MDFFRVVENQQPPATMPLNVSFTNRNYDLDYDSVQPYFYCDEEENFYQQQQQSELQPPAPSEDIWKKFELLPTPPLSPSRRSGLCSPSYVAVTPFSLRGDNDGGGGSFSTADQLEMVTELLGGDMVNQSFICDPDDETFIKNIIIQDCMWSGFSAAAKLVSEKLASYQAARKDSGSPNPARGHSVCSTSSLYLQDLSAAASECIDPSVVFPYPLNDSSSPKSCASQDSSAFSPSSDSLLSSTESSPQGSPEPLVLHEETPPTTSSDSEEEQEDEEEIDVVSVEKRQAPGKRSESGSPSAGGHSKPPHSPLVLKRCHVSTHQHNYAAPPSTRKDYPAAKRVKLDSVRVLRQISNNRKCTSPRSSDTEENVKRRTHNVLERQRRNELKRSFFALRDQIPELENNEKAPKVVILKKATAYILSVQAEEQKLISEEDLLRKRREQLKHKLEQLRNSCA

No constants are given. Whether binding was seen depends on the method and setting. In cells and extracts the contact can be indirect. Some results given as binding are weak or reduced against the parent protein; the word gives no strength. For part of these data: Where a sequence is shown, tags or fusion partners need not be part of it.

Test [1] addresses Fg-SPOP-M35L (human (cDNA of HCC cells)) (UniProt O43791). The test is described as follows: co-IP; co-IP of SPOP or SPOP-M35L with one substrate, with or without a second substrate co-expressed (Fig. 7H-K, Fig. S6A-D).
The target in test [2] is Fg-SPOP (human (cDNA of HCC cells)) (UniProt O43791). The test is described as above.
Test [3] addresses SPOP-M117I (human (cDNA of HCC cells)) (UniProt O43791). The test is described as follows: co-IP; co-transfected cells (HEK-293T where told), treated with 25 μM MG132 for 8 h, harvested 48 h after transfection; IP by anti-Fg, anti-Myc or anti-HA, immunoblot.
In test [4] the target is Fg-SPOP-M35L (human (cDNA of HCC cells)) (UniProt O43791). Described as above.
For test [5], the target named is T1, Fg-VGLL4 (human (cDNA of HCC cells)) (UniProt Q14135).
T1 sequence: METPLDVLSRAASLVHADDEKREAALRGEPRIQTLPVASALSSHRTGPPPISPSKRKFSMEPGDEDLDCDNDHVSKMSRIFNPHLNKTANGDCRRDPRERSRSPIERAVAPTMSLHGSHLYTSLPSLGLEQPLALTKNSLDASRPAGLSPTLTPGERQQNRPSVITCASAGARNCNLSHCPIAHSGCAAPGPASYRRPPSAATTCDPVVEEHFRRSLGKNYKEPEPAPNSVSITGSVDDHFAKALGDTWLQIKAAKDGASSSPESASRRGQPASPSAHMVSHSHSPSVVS
The test is described as above.

Test [6] deals with Fg-SPOP-MATH (human (cDNA of HCC cells)) (UniProt O43791). The test is described as above.
Test [7] has as its target SPOP-Y87N (human (cDNA of HCC cells)) (UniProt O43791). Described as above.
Test [8] deals with Fg-SPOP (human (cDNA of HCC cells)) (UniProt O43791). The test is described as above.
For test [9], the target named is SPOP-F136L (human (cDNA of HCC cells)) (UniProt O43791). The description is as above.
Test [10] deals with SPOP-S119N (human (cDNA of HCC cells)) (UniProt O43791). Described as above.
Test [11] concerns the target SPOP-R121Q (human (cDNA of HCC cells)) (UniProt O43791). The test is described as above.
Test [12] concerns the target SPOP-F133V (human (cDNA of HCC cells)) (UniProt O43791). The description is as above.
For test [13], the target named is SPOP-E47K (human (cDNA of HCC cells)) (UniProt O43791). Described as above.
Test [14] has as its target SPOP-K129E (human (cDNA of HCC cells)) (UniProt O43791). Described as above.
For test [15], the target named is SPOP-F125I (human (cDNA of HCC cells)) (UniProt O43791). Described as above.
Test [16] has as its target endogenous IRF2BP2 (human (endogenous in SMMC-7721 and SK-Hep1)) (UniProt Q7Z5L9). The test is described as follows: co-IP; endogenous proteins of SMMC-7721 and SK-Hep1 cells; IP of IRF2BP2, immunoblot.
Test [17] addresses Myc-IRF2BP2 (human (cDNA of HCC cells)) (UniProt Q7Z5L9). The test is described as follows: co-IP; co-transfected cells (HEK-293T where told), treated with 25 μM MG132 for 8 h, harvested 48 h after transfection; IP by anti-Fg, anti-Myc or anti-HA, immunoblot. (In general: Immunoblotting shows a protein as a band on a membrane.)
The target of test [18] is Fg-SPOP-M35L (human (cDNA of HCC cells)) (UniProt O43791). The test is described as above. This is another data set of the same source.
Test [19] has as its target Fg-SPOP (human (cDNA of HCC cells)) (UniProt O43791). The test is described as above. This is another data set of the same source.

Consider Myc-IRF2BP2 (from UniProt Q7Z5L9 1-587), for which the binding result in test [1], in test [2], in test [3], in [4], in [5] and in test [6] was “binds” each time. Also, the binding entry in test [7] is “no binding”; in test [8], “binds”; in test [9], “binds”; in test [10], “no binding”; in [11], “binds”; in test [12], “no binding”. In addition, the figures for the binding result in test [13], in test [14] and in [15] were “binds”, “no binding” and “no binding”, respectively.
For “Myc-IRF2BP2-Mu (from UniProt Q7Z5L9 1-587)”, in test [5], the binding result is listed as “binds”.
“IRF2BP2-K236R (from UniProt Q7Z5L9 1-587)”: the binding entry in [8] is reported as “binds”.
Take “endogenous SPOP (from UniProt O43791 1-374)”: in test [16], the binding result is on record as “binds”.
Consider Myc-GLI2 (from UniProt P10070 1-1586), for which the binding result in [1], in test [2], in test [4] and in test [8] was “binds” each time.
As to “IRF2BP2-K289R (from UniProt Q7Z5L9 1-587)”, the binding entry in test [8] is reported as “binds”.
With HA-c-MYC (from UniProt P01106 1-454), the binding entry in test [1], in [2], in test [4] and in [8] was “binds” in each case.
Fg-SPOP (from UniProt O43791 1-374): the binding entry in [17] is on record as “binds”.

B1: HA-TRIM24 (protein, UniProt O15164 1-1050)
chain: MEVAVEKAVAAAAAASAAASGGPSAAPSGENEAESRQGPDSERGGEAARLNLLDTCAVCHQNIQSRAPKLLPCLHSFCQRCLPAPQRYLMLPAPMLGSAETPPPVPAPGSPVSGSSPFATQVGVIRCPVCSQECAERHIIDNFFVKDTTEVPSSTVEKSNQVCTSCEDNAEANGFCVECVEWLCKTCIRAHQRVKFTKDHTVRQKEEVSPEAVGVTSQRPVFCPFHKKEQLKLYCETCDKLTCRDCQLLEHKEHRYQFIEEAFQNQKVIIDTLITKLMEKTKYIKFTGNQIQNRIIEVNQNQKQVEQDIKVAIFTLMVEINKKGKALLHQLESLAKDHRMKLMQQQQEVAGLSKQLEHVMHFSKWAVSSGSSTALLYSKRLITYRLRHLLRARCDASPVTNNTIQFHCDPSFWAQNIINLGSLVIEDKESQPQMPKQNPVVEQNSQPPSGLSSNQLSKFPTQISLAQLRLQHMQQQVMAQRQQVQRRPAPVGLPNPRMQGPIQQPSISHQQPPPRLINFQNHSPKPNGPVLPPHPQQLRYPPNQNIPRQAIKPNPLQMAFLAQQAIKQWQISSGQGTPSTTNSTSSTPSSPTITSAAGYDGKAFGSPMIDLSSPVGGSYNLPSLPDIDCSSTIMLDNIVRKDTNIDHGQPRPPSNRTVQSPNSSVPSPGLAGPVTMTSVHPPIRSPSASSVGSRGSSGSSSKPAGADSTHKVPVVMLEPIRIKQENSGPPENYDFPVVIVKQESDEESRPQNANYPRSILTSLLLNSSQSSTSEETVLRSDAPDSTGDQPGLHQDNSSNGKSEWLDPSQKSPLHVGETRKEDDPNEDWCAVCQNGGELLCCEKCPKVFHLSCHVPTLTNFPSGEWICTFCRDLSKPEVEYDCDAPSHNSEKKKTEGLVKLTPIDKRKCERLLLFLYCHEMSLAFQDPVPLTVPDYYKIIKNPMDLSTIKKRLQEDYSMYSKPEDFVADFRLIFQNCAEFNEPDSEVANAGIKLENYFEELLKNLYPEKRFPKPEFRNESEDNKFSDDSDDDFVQPRKKRLKSIEERQLLK
B1: the binding result in test [1], in test [2], in test [18] and in [19] was “binds” in each case.

B2: endogenous VGLL4 (protein, UniProt Q14135 1-290)
chain: METPLDVLSRAASLVHADDEKREAALRGEPRIQTLPVASALSSHRTGPPPISPSKRKFSMEPGDEDLDCDNDHVSKMSRIFNPHLNKTANGDCRRDPRERSRSPIERAVAPTMSLHGSHLYTSLPSLGLEQPLALTKNSLDASRPAGLSPTLTPGERQQNRPSVITCASAGARNCNLSHCPIAHSGCAAPGPASYRRPPSAATTCDPVVEEHFRRSLGKNYKEPEPAPNSVSITGSVDDHFAKALGDTWLQIKAAKDGASSSPESASRRGQPASPSAHMVSHSHSPSVVS
On to B2, for which, in test [16], the binding result is on record as “binds”.
